Source: US9347937B2, “Vaccine comprising Amb a 1 peptides for use in the treatment of ragweed allergy” (Circassia Limited, priority 2008, dated 2016)
Part of at least one peptide drawing is inferred or uncertain, most often the ends. No end group written: not given here.

What was measured:
[1] = system: PBMC's of ragweed allergic individuals; assay: Cytokine release assay (IL-13 / IFN-gamma, multiplex bead array); type: cell-based, human; conditions: Interferon gamma or IL-13 >100 pg/ml; for % responders: 50 individuals; for Number of responders >100 pg/ml: PBMC of 50 individuals, 5 days stimulation
[2] = system: PBMC from ragweed allergic individuals; assay: IL-10 release cytokine assay; type: cell-based, human; conditions: for IL-10 response: same panel of individuals, FIG. 2

Sequence | % responders [1] [%] | Number of responders >100 pg/ml [1] | individuals in whom IL-10 was induced ([2]; peptide on its own, 50 individuals) | IL-10 response [2]
AINNDKTIDGRGAKVE [RGW06A] | 34 | 17 |  | 
DVFENGAIFVPSG [RGW03A] | 44 | 22 |  | 
ETRRSLKTSGAYN [RGW09] | 36 | 18 |  | 
FGFFQVVNNNYD [RGW10] | 42 | 21 |  | 
GEAAIKLTSSAGVLS [RGW07] | 4 | 2 | 49/50 | induce significant quantities of IL-10
GEAVLRLTSSAGVLS [RGW07A] | 18 | 9 |  | 
GESALSLTSSAGVLS [RGW07B] | 10 | 5 |  | induce significant quantities of IL-10
GGSQIWIDHCSLSKA [RGW02B] | 18 | 9 |  | 
GLIKSHDGPPV [RGW01A] | 50 | 25 |  | 
GLIKSNDGPAA [RGW01B] | 48 | 24 |  | 
GMIKSNDGPPI [RGW01] | 68 | 34 |  | 
GSSQIWIDHCSLSKS [RGW02A] | 10 | 5 |  | 
GSSQIWIDHSSLSKS [RGW02] | 36 | 18 |  | 
GSTHFTVSNCLF [RGW08B] | 20 | 10 |  | 
GSTHFTVSNSLF [RGW08C] | 4 | 2 |  | 
GSTHVTISNCKF [RGW08A] | 12 | 6 |  | 
GSTHVTISNSKF [RGW08] | 8 | 4 |  | 
GTTRLTVSNSLF [RGW08D] | 12 | 6 |  | 
HGFFQVVNNNYD [RGW10A] | 40 | 20 |  | 
KAGMIPAEPGEA [RGW04] | 46 | 23 |  | 
KDLLENGAIFVTSG [RGW03] | 50 | 25 |  | 
KEGTLRFAAAQNRP [RGW05] | 38 | 19 |  | 
KEGTLRFGAAQNRP [RGW05A] | 32 | 16 |  | 
RDLLENGAIFLPSG [RGW03B] | 44 | 22 |  | 
SAGMIPAEPGEA [RGW04A] | 40 | 20 |  | 
VNNNYDKWGSYA [RGW11A] | 34 | 17 |  | 
VNNNYDRWGTYA [RGW11] | 16 | 8 |  | 
VNNNYERWGSYA [RGW11B] | 20 | 10 |  | 
VVNSDKTIDGRGVKVE [RGW06] | 34 | 17 |  | 
